These are yes or no findings as the source states them, for the method shown. Tags and fused reporters may be left off the sequences shown.
Target: Recombinant His-OGG1 (UniProt O15527)
Assay: pull-down; reverse pull-down: His-OGG1 used to pull down GST-MSK1 and its mutants (Fig. S5B); both purified

Amino acid sequences for entries named in this document (tags omitted).
UniProt O15527: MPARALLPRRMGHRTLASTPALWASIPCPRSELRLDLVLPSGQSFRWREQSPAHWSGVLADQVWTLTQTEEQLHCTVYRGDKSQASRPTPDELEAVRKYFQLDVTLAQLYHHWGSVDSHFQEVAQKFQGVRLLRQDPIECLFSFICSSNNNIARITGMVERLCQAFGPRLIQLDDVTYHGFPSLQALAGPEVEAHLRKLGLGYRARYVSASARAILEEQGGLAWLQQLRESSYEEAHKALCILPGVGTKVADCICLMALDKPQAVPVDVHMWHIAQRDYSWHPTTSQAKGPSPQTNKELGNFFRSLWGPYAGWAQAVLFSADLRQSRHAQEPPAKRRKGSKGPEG

- binding: no binding
B1: GST-MSK1 330-803 (domain or fragment, UniProt O75582 330-802)
chain: KVPAPFKPVIRDELDVSNFAEEFTEMDPTYSPAALPQSSEKLFQGYSFVAPSILFKRNAAVIDPLQFHMGVERPGVTNVARSAMMKDSPFYQHYDLDLKDKPLGEGSFSICRKCVHKKSNQAFAVKIISKRMEANTQKEITALKLCEGHPNIVKLHEVFHDQLHTFLVMELLNGGELFERIKKKKHFSETEASYIMRKLVSAVSHMHDVGVVHRDLKPENLLFTDENDNLEIKIIDFGFARLKPPDNQPLKTPCFTLHYAAPELLNQNGYDESCDLWSLGVILYTMLSGQVPFQSHDRSLTCTSAVEIMKKIKKGDFSFEGEAWKNVSQEAKDLIQGLLTVDPNKRLKMSGLRYNEWLQDGSQLSSNPLMTPDILGSSGAAVHTCVKATFHAFNKYKREGFCLQNVDKAPLAKRRKMKKTSTSTETRSSSSESSHSSSSHSHGKTTPTKTLQPSNPADSNNPETLFQFSDSVA

From paper PMC10641171
